In publication PMC4274898:
Results are given in words; binding and its absence hold for the method and conditions named. Some entries that bind do so weakly or less than the wild type.

B1: Aux/IAA31 (protein, UniProt Q8H174 1-158)
chain: MEVSNSCSSFSSSSVDSTKPSPSESSVNLSLSLTFPSTSPQREARQDWPPIKSRLRDTLKGRRLLRRGDDTSLFVKVYMEGVPIGRKLDLCVFSGYESLLENLSHMFDTSIICGNRDRKHHVLTYEDKDGDWMMVGDIPWDMFLETVRRLKITRPERY
B2: Aux/IAA33 (protein, UniProt Q9FKM7 1-171)
chain: MNSFEPQSQDSLQRRFHQDNSTTQQPRDTTTPFIPKPASKNHNNSNSSSGAAGRSFQGFGLNVEDDLVSSVVPPVTVVLEGRSICQRISLDKHGSYQSLASALRQMFVDGADSTDDLDLSNAIPGHLIAYEDMENDLLLAGDLTWKDFVRVAKRIRILPVKGNTRQVKRNE
B3: Aux/IAA34 (protein, UniProt Q9C5X0 1-185)
chain: MYCSDPPHPLHLVASDKQQKDHKLILSWKKPTMDSDPLGVFPNSPKYHPYYSQTTEFGGVIDLGLSLRTIQHEIYHSSGQRYCSNEGYRRKWGYVKVTMDGLVVGRKVCVLDHGSYSTLAHQLEDMFGMQSVSGLRLFQMESEFCLVYRDEEGLWRNAGDVPWNEFIESVERLRITRRNDAVLPF
B4: Aux/IAA4 (protein, UniProt P33077 1-186)
chain: MEKVDVYDELVNLKATELRLGLPGTEETVSCGKSNKRVLPEATEKEIESTGKTETASPPKAQIVGWPPVRSYRKNNVQTKKSESEGQGNYVKVSMDGAPYLRKIDLTMYKQYPELMKSLENMFKFSVGEYFEREGYKGSDFVPTYEDKDGDWMLVGDVPWEMFVSSCKRLRIMKGSEVKGLGCGGL
B5: Aux/IAA5 (protein, UniProt P33078 1-163)
chain: MANESNNLGLEITELRLGLPGDIVVSGESISGKKRASPEVEIDLKCEPAKKSQVVGWPPVCSYRRKNSLERTKSSYVKVSVDGAAFLRKIDLEMYKCYQDLASALQILFGCYINFDDTLKESECVPIYEDKDGDWMLAGDVPWEMFLGSCKRLRIMKRSCNRG

Each binder was assayed against T1, ARF3 (Arabidopsis thaliana) (UniProt O23661) (assay: two-hybrid; S. cerevisiae AH109 co-transformed with pGBKT7-ARF (bait) and pGADT7-Aux/IAA (prey); growth on SD/-Ade-His-Leu-Trp against SD/-Leu/-Trp; at least 10 independent colonies; serial dilutions for strength).
T1 sequence: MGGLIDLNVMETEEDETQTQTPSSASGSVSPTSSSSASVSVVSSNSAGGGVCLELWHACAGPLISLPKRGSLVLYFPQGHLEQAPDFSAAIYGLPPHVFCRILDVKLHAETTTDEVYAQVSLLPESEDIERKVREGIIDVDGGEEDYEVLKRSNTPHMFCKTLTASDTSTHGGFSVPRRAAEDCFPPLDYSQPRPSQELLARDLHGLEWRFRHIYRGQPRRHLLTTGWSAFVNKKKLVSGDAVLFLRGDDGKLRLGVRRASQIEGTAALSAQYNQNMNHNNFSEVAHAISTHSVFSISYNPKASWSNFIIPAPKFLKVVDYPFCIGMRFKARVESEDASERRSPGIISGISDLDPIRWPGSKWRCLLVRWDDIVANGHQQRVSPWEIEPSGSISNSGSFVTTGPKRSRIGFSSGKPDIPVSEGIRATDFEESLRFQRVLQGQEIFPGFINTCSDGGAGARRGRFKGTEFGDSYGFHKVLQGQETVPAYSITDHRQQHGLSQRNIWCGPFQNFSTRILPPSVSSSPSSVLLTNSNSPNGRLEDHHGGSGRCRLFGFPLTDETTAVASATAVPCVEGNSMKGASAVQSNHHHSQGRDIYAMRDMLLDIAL
For B1, the binding was “no binding”. B2 was tested, and the binding was “no binding”. B3 was tested, and the binding was “no binding”. In the case of B4, the binding is reported as “no binding”. In the case of B5, the binding is reported as “no binding”.

What follows are binders tested against T2, ARF7 (Arabidopsis thaliana) (UniProt P93022) in the same assay as above.
T2 sequence: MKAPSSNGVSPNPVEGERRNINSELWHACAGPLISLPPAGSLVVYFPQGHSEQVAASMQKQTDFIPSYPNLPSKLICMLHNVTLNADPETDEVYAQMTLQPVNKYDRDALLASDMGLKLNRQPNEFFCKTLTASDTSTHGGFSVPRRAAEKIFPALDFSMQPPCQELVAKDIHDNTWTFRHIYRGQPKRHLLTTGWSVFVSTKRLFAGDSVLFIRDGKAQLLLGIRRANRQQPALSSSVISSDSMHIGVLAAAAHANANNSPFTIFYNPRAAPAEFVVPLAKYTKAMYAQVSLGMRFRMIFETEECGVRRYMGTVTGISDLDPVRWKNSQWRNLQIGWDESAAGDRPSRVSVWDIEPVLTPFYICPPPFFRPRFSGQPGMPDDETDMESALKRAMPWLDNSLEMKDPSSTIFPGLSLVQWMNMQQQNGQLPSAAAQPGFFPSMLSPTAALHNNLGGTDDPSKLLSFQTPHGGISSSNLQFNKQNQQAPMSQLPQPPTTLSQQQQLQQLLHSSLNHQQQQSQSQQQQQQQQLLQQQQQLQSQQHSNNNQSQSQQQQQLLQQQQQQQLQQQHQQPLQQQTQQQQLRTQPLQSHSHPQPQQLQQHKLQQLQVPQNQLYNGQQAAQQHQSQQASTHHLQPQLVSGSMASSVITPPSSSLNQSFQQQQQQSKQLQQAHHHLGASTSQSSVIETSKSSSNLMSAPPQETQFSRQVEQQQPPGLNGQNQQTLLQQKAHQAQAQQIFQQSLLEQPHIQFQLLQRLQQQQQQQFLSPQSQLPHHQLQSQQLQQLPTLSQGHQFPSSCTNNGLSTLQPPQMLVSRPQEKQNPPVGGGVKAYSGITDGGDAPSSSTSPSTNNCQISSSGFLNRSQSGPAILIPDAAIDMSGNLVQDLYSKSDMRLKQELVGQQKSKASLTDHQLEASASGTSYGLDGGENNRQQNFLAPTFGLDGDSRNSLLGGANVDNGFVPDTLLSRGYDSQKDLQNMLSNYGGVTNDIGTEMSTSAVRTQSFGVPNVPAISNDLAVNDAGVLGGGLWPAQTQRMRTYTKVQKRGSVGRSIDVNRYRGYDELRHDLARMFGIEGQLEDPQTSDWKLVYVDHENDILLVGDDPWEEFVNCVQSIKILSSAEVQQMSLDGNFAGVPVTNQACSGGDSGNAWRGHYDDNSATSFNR
In the case of B1, the binding is reported as “binds”. In the case of B2, the binding is reported as “binds”. With B3 the binding was “binds”. With B4 the binding was “binds”. For B5, the binding was “binds”.

Each binder was assayed against T3, ARF8 (Arabidopsis thaliana) (UniProt Q9FGV1) in the same assay as above.
T3 sequence: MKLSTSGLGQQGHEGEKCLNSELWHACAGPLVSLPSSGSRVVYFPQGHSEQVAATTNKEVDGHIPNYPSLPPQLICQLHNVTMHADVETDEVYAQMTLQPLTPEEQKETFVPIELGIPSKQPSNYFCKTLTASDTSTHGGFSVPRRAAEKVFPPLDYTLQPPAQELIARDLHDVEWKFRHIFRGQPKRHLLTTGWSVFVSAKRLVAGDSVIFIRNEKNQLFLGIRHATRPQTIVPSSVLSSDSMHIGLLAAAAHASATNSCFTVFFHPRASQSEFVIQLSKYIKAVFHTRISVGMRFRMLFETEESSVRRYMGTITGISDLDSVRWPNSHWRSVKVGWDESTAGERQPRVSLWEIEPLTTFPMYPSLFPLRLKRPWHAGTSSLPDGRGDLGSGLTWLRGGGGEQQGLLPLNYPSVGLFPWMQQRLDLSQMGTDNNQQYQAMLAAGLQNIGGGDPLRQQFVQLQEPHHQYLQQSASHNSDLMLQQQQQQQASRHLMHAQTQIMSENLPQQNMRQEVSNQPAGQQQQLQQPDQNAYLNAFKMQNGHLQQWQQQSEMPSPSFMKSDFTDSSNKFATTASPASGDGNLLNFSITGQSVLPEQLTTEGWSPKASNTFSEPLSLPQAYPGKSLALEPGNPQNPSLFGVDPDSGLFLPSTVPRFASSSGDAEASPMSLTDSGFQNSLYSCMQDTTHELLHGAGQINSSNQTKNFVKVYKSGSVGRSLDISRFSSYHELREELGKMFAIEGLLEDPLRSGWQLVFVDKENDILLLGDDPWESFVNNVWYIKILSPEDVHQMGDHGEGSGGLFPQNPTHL
B1 was tested, and the binding was “binds”. In the case of B2, the binding is reported as “binds”. In the case of B3, the binding is reported as “binds”. For B4, the binding was “binds”. With B5 the binding was “binds”.
